Binding data for four molecules are collected here from publication PMC5101480 (Scientific Reports, 2016).

By UniProt entry, the sequences of proteins in these tests, tags left out. Residues count along the entry.
Rpn13 C-terminal domain, residues 260-407 (Q16186, residues 260-407): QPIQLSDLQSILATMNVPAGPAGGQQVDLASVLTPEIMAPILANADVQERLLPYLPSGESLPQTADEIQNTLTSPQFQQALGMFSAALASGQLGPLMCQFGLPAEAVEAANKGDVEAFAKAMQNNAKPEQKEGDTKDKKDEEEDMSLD
Rpn13 construct devoid of the C-terminal pentapeptide, residues 260-402 (Q16186, residues 260-402): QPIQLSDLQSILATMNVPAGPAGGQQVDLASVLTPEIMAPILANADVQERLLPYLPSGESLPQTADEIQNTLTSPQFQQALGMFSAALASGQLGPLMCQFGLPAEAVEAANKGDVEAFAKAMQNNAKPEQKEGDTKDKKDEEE

Results are given in words; binding and its absence hold for the method and conditions named. Some results given as binding are weak or reduced against the parent protein; the word gives no strength.

For test [1], the target named is Rpn13 C-terminal domain, residues 260-407 (human) (UniProt Q16186). Kind of test: NMR titration; 1H-15N HSQC chemical shift perturbation; unlabelled SGTA_TPR (wild type or K160E/R164E) titrated into 15N-labelled Rpn13_(260-407); 25 °C, 10 mM potassium phosphate pH 6.0, 100 mM NaCl, 250 μM TCEP; both purified.
Test [2] deals with K160E/R164E double mutant SGTA_TPR (residues 84-211) (human) (UniProt O43765). Kind of test: SEC; the two proteins mixed in a 1:1 molar ratio (for the K160E/R164E mutant also with Rpn13_(260-407) at a 3-fold molar excess) and compared with each run individually under identical conditions; both purified.
Test [3] concerns the target TPR domain of SGTA (small, glutamine-rich, tetratricopeptide repeat protein alpha), residues 84-211 (human) (UniProt O43765). The test is described as above.
Test [4] has the same target. Kind of test: NMR titration; 1H-15N HSQC chemical shift perturbation; unlabelled Rpn13 construct or DMSLD peptide titrated into 15N-labelled SGTA_TPR (wild type or K160E/R164E); 25 °C, 10 mM potassium phosphate pH 6.0, 100 mM NaCl, 250 μM TCEP; both purified.
The target in test [5] is K160E/R164E double mutant SGTA_TPR (residues 84-211) (human) (UniProt O43765). Kind of test: condition: up to a 6-fold molar excess of Rpn13_(260-407); NMR titration; 1H-15N HSQC chemical shift perturbation; unlabelled Rpn13 construct or DMSLD peptide titrated into 15N-labelled SGTA_TPR (wild type or K160E/R164E); 25 °C, 10 mM potassium phosphate pH 6.0, 100 mM NaCl, 250 μM TCEP; both purified.

For test [6], the target named is TPR domain of SGTA (small, glutamine-rich, tetratricopeptide repeat protein alpha), residues 84-211 (human) (UniProt O43765). Kind of test: condition: up to a 6-fold molar excess of Rpn13_(260-402); NMR titration; 1H-15N HSQC chemical shift perturbation; unlabelled Rpn13 construct or DMSLD peptide titrated into 15N-labelled SGTA_TPR (wild type or K160E/R164E); 25 °C, 10 mM potassium phosphate pH 6.0, 100 mM NaCl, 250 μM TCEP; both purified.

In test [7] the target is Rpn13 construct devoid of the C-terminal pentapeptide, residues 260-402 (human) (UniProt Q16186). Kind of test: ITC; SGTA_TPR at 1 mM injected into Rpn13 or DMSLD peptide at 50 μM in the cell; 25 °C, 10 mM potassium phosphate pH 6.0, 100 mM NaCl, 250 μM TCEP; one site assumed (n = 1); both purified.

Take “K160E/R164E double mutant SGTA_TPR (residues 84-211) (from UniProt O43765 84-211) (domain or fragment)”: in test [1], the binding entry is on record as “no binding”.

On to “Rpn13 C-terminal domain, residues 260-407 (from UniProt Q16186 260-407) (domain or fragment)”, for which the binding entry in test [2] is “no binding (tested: 3-fold molar excess of Rpn13_(260-407))”; in test [3], “binds”; in test [4], “binds”; in test [5], “no binding”.

With “Rpn13 construct devoid of the C-terminal pentapeptide, residues 260-402 (from UniProt Q16186 260-402) (domain or fragment)”, the binding entry in test [6] is on record as “no binding”; in test [3] it was “no binding (tested: 1:1 molar ratio)”.

B1: TPR domain of SGTA (small, glutamine-rich, tetratricopeptide repeat protein alpha), residues 84-211 (domain or fragment, human, UniProt O43765 84-211, looked up)
chain: SEEDSAEAERLKTEGNEQMKVENFEAAVHFYGKAIELNPANAVYFCNRAAAYSKLGNYAGAVQDCERAICIDPAYSKAYGRMGLALSSLNKHVEAVAYYKKALELDPDNETYKSNLKIAELKLREAPS
notes: human SGTA, central TPR domain, residues 84-211; 15N-labelled (M9 medium) where it was the observed species in NMR; unlabelled otherwise; not shown: thioredoxin A (TxA), N-terminal, cleaved; His6, N-terminal, cleaved
Take B1: the binding entry in test [7] is recorded as “no binding”.
